# The full ranking holds about 81,000 sequences; the median of “one-hybrid fitness for binding NBS DNA” is about -0.1, and the highest 2% start at about 0.36. The list shows a part of the results.
# B1: Caulobacter ParB omega fusion; a variant is named by its letters at X, in order, B8GW30 (parent)
# chain: MESVVVGEPGMSEGRRGLGRGLSALLGEVDAAPAQAPGEQLGGSREAPIEILQRNPDQPRRTFREEDLEDLSNSIREKGVLQPILVRPSPDTAGEYQIVAGERAWRAAQRAGLKTVPIMVRELDDLAVLEIGIIENVQRADLNVLEEALSYKVLMEKFERTQENIAQTIGKSXSHVANXMRLLXLPDEVQSYLVSGELTAXHARAIAAAADPVALAKQIIEGGLSVRETEALARKAPNLSAGKSKGGRPPRVKDTDTQALESDLSSVLGLDVSIDHRGSTGTLTITYATLEQLDDLCNRLTRGI
# Variants of: B1
# Assay: one-hybrid fitness for binding NBS DNA (the Noc-binding site; scaled: cognate 1, non-cognate 0); higher = stronger binding
# Conditions: with NBS DNA site
# In short: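 Fitness is the rescaled log change in variant-to-wild-type read ratio, measured by Illumina sequencing of plasmids before and after bacterial one-hybrid selection. The scale puts cognate at 1 and non-cognate at 0. Selection of Caulobacter ParB libraries, four specificity codons randomised, took place in E. coli USO with a HIS3 reporter, site 19 bp from the promoter, over 48 hours at 37°C on M9-minus-histidine with 0.1 mM IPTG and 5 mM 3-AT.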
row,Variant,one-hybrid fitness for binding NBS DNA
1,QYGL,≤ 0.2
2,YARH,≤ 0.2
3,PHHA,≤ 0.2
4,MNRQ,≤ 0.2
5,KTYH,≤ 0.2
6,THNW,≤ 0.2
7,LSNM,≤ 0.2
8,DTTH,≤ 0.2
9,QQLT,0.45
10,YHTR,≤ 0.2
11,LGAC,≤ 0.2
12,PIVC,≤ 0.2
13,LILG,≤ 0.2
14,LGKS,≤ 0.2
15,HAGG,≤ 0.2
16,GMQG,≤ 0.2
17,SMMM,≤ 0.2
18,ESSI,≤ 0.2
19,VLPV,≤ 0.2
20,CGVE,≤ 0.2
21,DPLI,≤ 0.2
22,RTNK,≤ 0.2
23,PCMG,≤ 0.2
24,TRPM,≤ 0.2
25,GVQA,≤ 0.2

row,Variant,one-hybrid fitness for binding NBS DNA
1,YWQS,≤ 0.2
2,ALAG,≤ 0.2
3,QVKH,0.38
4,RRPW,≤ 0.2
5,RWIA,≤ 0.2
6,RCMF,≤ 0.2
7,ALLI,≤ 0.2
8,TTWV,≤ 0.2
9,YNYC,≤ 0.2
10,KVFC,≤ 0.2
11,QTWA,0.367
12,HSHV,≤ 0.2
13,TAYK,≤ 0.2
14,QQND,≤ 0.2
15,SARP,≤ 0.2
16,HANV,≤ 0.2
17,SAAF,≤ 0.2
18,QPSY,≤ 0.2
19,KLGM,≤ 0.2
20,IVYG,≤ 0.2
21,EDAC,≤ 0.2
22,VVYI,≤ 0.2
23,TVFW,≤ 0.2
24,LHVG,≤ 0.2
25,PHYT,≤ 0.2

row,Variant,one-hybrid fitness for binding NBS DNA
1,AFIG,≤ 0.2
2,TRSM,≤ 0.2
3,PWVM,≤ 0.2
4,ARVV,≤ 0.2
5,YAGR,≤ 0.2
6,INHT,≤ 0.2
7,DTPD,≤ 0.2
8,APMT,≤ 0.2
9,LTTF,≤ 0.2
10,KANS,≤ 0.2
11,WVSP,≤ 0.2
12,PTLY,≤ 0.2
13,DSLT,≤ 0.2
14,VYVI,≤ 0.2
15,CHVT,≤ 0.2
16,LYHG,≤ 0.2
17,NRYR,≤ 0.2
18,KTHI,≤ 0.2
19,HTCL,≤ 0.2
20,QRYN,0.319
21,NVPG,≤ 0.2
22,YGHL,≤ 0.2
23,LPYA,≤ 0.2
24,RSFL,≤ 0.2
25,EVKF,≤ 0.2

row,Variant,one-hybrid fitness for binding NBS DNA
1,QHDI,≤ 0.2
2,FQKG,≤ 0.2
3,TDNT,≤ 0.2
4,SWKC,≤ 0.2
5,TAKI,≤ 0.2
6,SYRE,≤ 0.2
7,NLLK,≤ 0.2
8,WDTL,≤ 0.2
9,MQEG,≤ 0.2
10,CNRS,≤ 0.2
11,KIWY,≤ 0.2
12,VTRD,≤ 0.2
13,HHQS,≤ 0.2
14,ANPA,≤ 0.2
15,CRPR,≤ 0.2
16,QMNT,0.52
17,LESS,≤ 0.2
18,PNAK,≤ 0.2
19,PNTQ,≤ 0.2
20,VFVS,≤ 0.2
21,QPTL,≤ 0.2
22,MHWT,≤ 0.2
23,GWWS,≤ 0.2
24,EWRV,≤ 0.2
25,NYNR,≤ 0.2

row,Variant,one-hybrid fitness for binding NBS DNA
1,HLVG,≤ 0.2
2,FMYR,≤ 0.2
3,SRHV,≤ 0.2
4,GDNL,≤ 0.2
5,IALV,≤ 0.2
6,YQWR,≤ 0.2
7,HYMR,≤ 0.2
8,TKSH,≤ 0.2
9,LTTL,≤ 0.2
10,SDPV,≤ 0.2
11,IGFC,≤ 0.2
12,MRDA,≤ 0.2
13,LKNC,≤ 0.2
14,PLRN,≤ 0.2
15,NSYG,≤ 0.2
16,RLSA,≤ 0.2
17,WHGE,≤ 0.2
18,LVGT,≤ 0.2
19,SNCY,≤ 0.2
20,FRWS,≤ 0.2
21,KDNT,≤ 0.2
22,WQTC,≤ 0.2
23,NTAF,≤ 0.2
24,RNHQ,≤ 0.2
25,TISK,≤ 0.2

row,Variant,one-hybrid fitness for binding NBS DNA
1,RYEV,≤ 0.2
2,MPPP,≤ 0.2
3,PYGT,≤ 0.2
4,GIFT,≤ 0.2
5,QTSV,0.235
6,YEVL,≤ 0.2
7,CTAT,≤ 0.2
8,NVHG,≤ 0.2
9,QNAM,≤ 0.2
10,GGWL,≤ 0.2
11,RMRF,≤ 0.2
12,THKC,≤ 0.2
13,RNDE,≤ 0.2
14,LAQI,≤ 0.2
15,AQVT,≤ 0.2
16,YPVC,≤ 0.2
17,PMYV,≤ 0.2
18,SCAD,≤ 0.2
19,TRLQ,≤ 0.2
20,YMKV,≤ 0.2
21,PLEN,≤ 0.2
22,QYLH,≤ 0.2
23,NKII,≤ 0.2
24,RYWY,≤ 0.2
25,RIFH,≤ 0.2

row,Variant,one-hybrid fitness for binding NBS DNA
1,VEAV,≤ 0.2
2,VRMV,≤ 0.2
3,WWYR,≤ 0.2
4,SATR,≤ 0.2
5,YSHK,≤ 0.2
6,RWLW,≤ 0.2
7,VRPT,≤ 0.2
8,MPTF,≤ 0.2
9,RHGI,≤ 0.2
10,YHQG,≤ 0.2
11,QIRS,0.539
12,CSIG,≤ 0.2
13,CKGT,≤ 0.2
14,LKWF,≤ 0.2
15,NDRA,≤ 0.2
16,RQPL,≤ 0.2
17,NVTR,≤ 0.2
18,DKKM,≤ 0.2
19,MQLC,≤ 0.2
20,HCRC,≤ 0.2
21,SPLQ,≤ 0.2
22,QRYF,0.227
23,YLNN,≤ 0.2
24,PIMV,≤ 0.2
25,YLKC,≤ 0.2

row,Variant,one-hybrid fitness for binding NBS DNA
1,AAYH,≤ 0.2
2,KSRL,≤ 0.2
3,APTN,≤ 0.2
4,LLPP,≤ 0.2
5,VLRI,≤ 0.2
6,TIVL,≤ 0.2
7,EDQR,≤ 0.2
8,PKPW,≤ 0.2
9,ENER,≤ 0.2
10,HMKN,≤ 0.2
11,AGIG,≤ 0.2
12,RIAW,≤ 0.2
13,RWCA,≤ 0.2
14,MAAA,≤ 0.2
15,TNNG,≤ 0.2
16,IFPP,≤ 0.2
17,QTTI,≤ 0.2
18,HSTY,≤ 0.2
19,FTLS,≤ 0.2
20,PTTQ,≤ 0.2

# — a collection of fitness landscapes (doi:10.1016/j.celrep.2020.107928)
